The text below walks through data of the RNAGym collection of RNA variant scans (doi:10.7554/elife.90254).

First the molecules themselves.
B1: LINE1-mini (parent)
chain: GGCAGAGCUCAACACAGCGUGGCAAAGUGGCUGUGGCUAGACUGCC

Read counts are not given, so values of variants with three or more changes are uncertain.

The variants in the data set derive from B1. Briefly: self-cleavage, relative activity (ratio to wild type); higher = more cleavage; in vitro, sequencing; the parent is a self-cleaving ribozyme.
Consider GGCAGAGCUCACCACAGCGUGGCAAAGUGGCUGCGGCUAGACUGCG, for which the self-cleavage worked out at 0.03.

With GGCAGAGCUCACCACAGCGUGGCAAAGUAGCUGUGACUAGCCUGCC, the self-cleavage is 0.03.

On to GGCAGAGCUCAGCACAGCGUGGCAAGGUGGCUGUGGCUGGACUGCC, for which the self-cleavage is 0. Take GGCAGAGCUCACCACAGCGUGUCAAAUUGGCUGUGGCUAGACUGCC: the self-cleavage is 0.01. The figure for GGCAGAGCUCAGCACAGAGUGGCAAAGUGGCUUUGGCUAGACUGCC is 0.03; for GGCAGAGCUCAGCGCAGAGUGGCACAGUGGCUGUGGCUAGAAUGCC it is 0.07. Regarding GGCAGAGCUCACUACAGCGUGGCAAAGUGGCUGUGGCUAGACCGCC, the self-cleavage was determined as 0.07.

As for GGCAGAGCUCAGCACAGGGUGGCAACGUGGCUGUGGCUAGACUGCC, the self-cleavage came out at 0. The figure for GGCAGAGCUCAGCACAGCGUGGCAAAGUGGCUGUGGCUAGUCUGCA is 0; for GGCAGAGCUCACCACAGCGGGGCAAAGUUGCUGUGGCUAGACUGCC it is 0; for GGCAGAGCUCAGCACAGUGUAGCAAAGUGGCUGUGGCGAGACUGCU it is 0.01. The value for GGCAGAGCUCACCACAGCGUGGCAAAGUGGCUGUGGCUAGAUCGCC was 0; that for GGCAGAGCUCACCACAGCGUGGCAAAGUGGCUGUGAAUAGACUGCC was 0.01. With GGCAGAGCUCACUAAAGCGUGGCAAAGUGGCUGUGGCUAGACUGCC, the self-cleavage was 0.03. The figure for GGCAGAGCUCAGGACAGCGUGGCAAAGUUGCUGUGGCUAGACUGCC is 0.17; for GGCAGAGCUCAGCACAGAGUGGCUAAGUGGCUGUGGCUUGACCGCC it is 0.02. The figure for GGCAGAGCUCACCACAUCGUGGCAUAGUGGCUGUGGCUAGACAGCC is 0.02; for GGCAGAGCUCAGCACAGCGUGGCAAAGUGGAUGUGGAUAGACUGCG it is 0.04; for GGCAGAGCUCACCAAUGCAUGGCAAAGUGGCUGUGGCUAGACUACC it is 0.03. The value for GGCAGAGCUCACCACAGCGUGUCAAAGUCGCUGUGGCUAGAAUGCC was 0.04; that for GGCAGAGCUCAGCACAGAGUGGCAAAGUGUCUGUGGCUAGACUGUC was 0.05; that for GGCAGAGCUCACUACAGCGUGGCAAAGUGGCUGGGGAUAAACUGCC was 0.01. For GGCAGAGCUCACCACAGCGUGGAAAAGUGGCUGUGGCCAGACUGCC, the self-cleavage is 0.01. Regarding GGCAGAGCUCACCACAGUGUGGCCAAGUGGGUGUUGCUAGUCUGCC, the self-cleavage stood at 0.

On to GGCAGAGCUCAGUACAGCUUGGCAAAGUGGCUGUGCCUAGACUGCG, for which the self-cleavage worked out at 0.03. The value for GGCAGAGCUCACCACAGCGUGGCAAAGGGACUGUGGCUAGACUGAC was 0.01; that for GGCAGAGCUCACCACAGCGAAGCAAAGUGGCUGAGGCUAGACUGCC was 0.04; that for GGCAGAGCUCAGCACGGCGUGGCAAAGUGGGUUUGGCUAUACUGCC was 0.21. The value for GGCAGAGCUCAGCACUGCGUGGCAGAGUGGCUGUGGCUAGACUGCC was 0.04; that for GGCAGAGCUCACCACAGCGUGGCAAAGUGGAUGUGGCUAGACUGCU was 0.02; that for GGCAGAGCUCAGCAAAGCGUGGCAAAGUAGCUGUGGCUAAACUGCC was 0. GGCAGAGCUCACCACAGCGAGGCAAAGUGGCUGUGGCUAGACUGGC: the self-cleavage came to 0.01.

With GGCAGAGCUCACCACAGCGUGGUAAAGUAGCUGUGGCUAGACUGCC, the self-cleavage turned out to be 0.02. Consider GGCAGAGCUCACCACAGCGAGGCAAUAUGGCUGUGGUUAGACUGCC, for which the self-cleavage worked out at 0.01.

With GGCAGAGCUCACCACAGCGUGCCAGAGUGGCUGUGGCUAGACUGCC, the self-cleavage was determined as 0.01. For the variant GGCAGAGCUCAGCACAGCGUGGCAACGUGGCUUUGGCUAGACUGCC, the self-cleavage is 0.04. For GGCAGAGCUCACCACACCGUUGCAAAGUGGCUGUAGCUAGACUGCC, the self-cleavage is 0.01. The figure for GGCAGAGCUCACCACAGCGUGCUAAAGUGGCUGUGGUUAGACUGCC is 0; for GGCAGAGCUCACCAUAGCGUGGCAAAGUAGCUGUGGCUAGAAUGCC it is 0.01. In the case of GGCAGAGCUCACCACAGCGUGGACAAAUGGCUGUGGCUAGACUGCC, the self-cleavage worked out at 0. Turning to GGCAGAGCUCACCACAGCGUAGCAAAGCGGCUGUGGCUAGACUGCA, the self-cleavage was found to be 0. The figure for GGCAGAGCUCACCACAGCGUUGCAAAGUGGCUGUGGCUGGAAUGCC is 0; for GGCAGAGCUCAGCAAAGCGUGGCAAAGUGGCUCUGGCUAGACUGCC it is 0.03. The value for GGCAGAGCUCACCACAGCGUGGCAAAGUGGGCGUGGCCAGACUGGC was 0; that for GGCAGAGCUCACUACAGCGUGGCAAAUUGGCUGUGGCUAGACUGCC was 0.01.

As to GGCAGAGCUCACCACAGCGUGGCAAAGUCGCUGUGGCUAGAAUGCC, the self-cleavage amounted to 0.01.

As for GGCAGAGCUCAGCACUGCGUGGCAAAGUGGCUGUGGCUAGACUGCA, the self-cleavage was 0.02. On to GGCAGAGCUCAGCACAGCGUGGCAUAGUGGCUGUGCCUAGACUGCC, for which the self-cleavage worked out at 0.01.

As to GGCAGAGCUCACCACAGAGUGGCAAAUUGGCUGUGGCUAGACUGCC, the self-cleavage turned out to be 0.1. As to GGCAGAGCUCAGCACAGCGUGGGAAUGUGGCUGGGGCUAGACUGCC, the self-cleavage worked out at 0.01. As for GGCAGAGCUCACAACAUCGUGGCAAAGUGGCUGUGGCUAGACUCCC, the self-cleavage is 0.02. Regarding GGCAGAGCUCAGCACAGCGUGGCGAAGUGGAUUUGGAUAGAUUGCC, the self-cleavage was 0.04. The value for GGCAGAGCUCAGCACAGAGUGGGAACAUGGCUGUGGCUAGACUGCC was 0.02. As for GGCAGAGCUCACCACAGCGUGGCAAAGUGGCUGAGCCUAGACUGCC, the self-cleavage was 0.02. The figure for GGCAGAGCUCACCACAGCGUGACAUAGUGGCUGUGGCUAGACUGAC is 0.02.

Consider GGCAGAGCUCACCACAUCGUGGCAAAGUGGCUGUGGCUAGCCUGCC, for which the self-cleavage is 0.01. As to GGCAGAGCUCAGCACGGCCUGGCAAAGUGGCUGUGGCUAGACUGCC, the self-cleavage was determined as 0.05. As for GGCAGAGCUCACCACAACGUGGCAAAGUGGCUGUGGCCUGACUGCC, the self-cleavage turned out to be 0.02. As to GGCAGAGCUCACCACAGCGUAGCAAAGUGGCUCUGGACAGACUGAC, the self-cleavage was 0.01. The figure for GGCAGAGCUCAGCGCAGCGUGGCAAAGUGGCUGUGGAUAGACUACC is 0.04; for GGCAGAGCUCACCACAGCGUGGCAAAGUGGCUGUGGCGGGACUGCC it is 0.01; for GGCAGAGCUCACCACAGUGUGGCAAAGUGGCUGUGGCUAGAUAGCC it is 0.01. The figure for GGCAGAGCUCAGCACAGCGUGGCAUCCUGGCUGUGGUUAGACUGCC is 0.1; for GGCAGAGCUCACCAUAGCCUGGCAACGUGGCUGUGGCUAGACUGCC it is 0; for GGCAGAGCUCACCACAGCGUGGCAAAGUGGCUAUCGCUAGACUGCC it is 0.02. The value for GGCAGAGCUCACAACAGCCUGGCAAAGUGGCUGUGGCUUGACUGCC was 0.01; that for GGCAGAGCUCACCACAGCGGGGCAAAGUGACUGUGGCUAGACUGCC was 0.03; that for GGCAGAGCUCACCACAGCGUGGCAAAGUGGCUGUGGCUAACCUGCC was 0.

Consider GGCAGAGCUCAGUACAGCGUGGCAAAGUGGCGGUGGGUAGAGUGCC, for which the self-cleavage turned out to be 0. The figure for GGCAGAGCUCAGCACAGCGUGGCAAAGUGGAUCCGGCUAGACUGCC is 0.06. Take GGCAGAGCUCAGCACAGCGUGGCACAGUGGCUGUGGCUUGACUGCC: the self-cleavage was 0.06. The value for GGCAGAGCUCACCACAGCGUGGCAAAGUUGCUGUGGCCAGACUGCC was 0; that for GGCAGAGCUCAGUACAGCGUGGCAACGUGGCUGUGGCUAGACUGCC was 0.01; that for GGCAGAGCUCACCACAGCGUGGCAAAGUGGCUGUGCCAAGACUGCC was 0.02. Turning to GGCAGAGCUCAGCACAGCGUGGGCAAAUGGCUGUACCUGGUCUGCC, the self-cleavage was 0.02. In the case of GGCAGAGCUCACCACAGCGUGGCAAAGUGGCUGCCGCUAGACUGCC, the self-cleavage was found to be 0.04.

GGCAGAGCUCACCACAGCGUGGCAAAGUGGCUGUGGUUCGACUUCC: the self-cleavage was determined as 0. Regarding GGCAGAGCUCAGCCCAGCGUGGAAAAGUGGCUGUCGCUAGACAGCC, the self-cleavage stood at 0.05. The figure for GGCAGAGCUCACCACAGCGUGGCAAAGUGUCGGCGGCUAGAUUGCC is 0.

As to GGCAGAGCUCAGCACAGCGUGGCACAGUGCCUGUGGCUAGACUGCC, the self-cleavage worked out at 0.05. Turning to GGCAGAGCUCAGCACAGCGUGGCAAAGUGGCUGUGGCUAGCCUGCG, the self-cleavage amounted to 0.02. The figure for GGCAGAGCUCACCAAGGCUUGCCACAGUGGCAGUGGCUAGACUUCC is 0.01; for GGCAGAGCUCACCACAGCGUGGCAAAGUGGCUGUGACGAUACUGCA it is 0; for GGCAGAGCUCACGAAAGCCUGGCAACGUGGCUAUGGCUAGACUGCC it is 0.02.

GGCAGAGCUCAGCACAGCGUGGCUAAGUGGCUGAGGCUAGACUGCC: the self-cleavage worked out at 0.02. On to GGCAGAGCUCAGCACAGCGUGGCAAAGUGGCUGUGGCUAGCCUAGC, for which the self-cleavage was determined as 0.04. The value for GGCAGAGCUCACCACAGCGUGGUAAAGUGGCUGUGGCUAGACUUCC was 0.01; that for GGCAGAGCUCAGCACAGCGUGGUAAGGUGGCUGUGGCUAGACUGCG was 0.03; that for GGCAGAGCUCACCACAGCGUGCAAAAGUGGCUGUGGCUAGACUGCC was 0.03. The figure for GGCAGAGCUCAGCACAGCGUGGAAAAGUGGCUUUAGCUAAACUACC is 0.05; for GGCAGAGCUCAGCACAGCGUGGCUAAGUGACUGGGGCUAGACUCCC it is 0.06. The value for GGCAGAGCUCACCACAGUGUGGCAAAGUGGCUGUGGCUAGACUACC was 0.03; that for GGCAGAGCUCACUACAGCGUCGCAGAGUUGCUGUGGCUAGACUGCC was 0.01. Take GGCAGAGCUCACCACAGCAUGGCAAAGUCGCUAUGGCUAGACUGCC: the self-cleavage was 0.01. The figure for GGCAGAGCUCACCACAGCGUGGCAAAGUGGCUGUGGCCAGCCUGCC is 0.01; for GGCAGAGCUCAGAACACCGUGGCAAAGUGGCUGUUGCUAUAUUGCC it is 0.03.

On to GGCAGAGCUCACCACAGCGAGGCAAAGUGGCUGUGGUUAGACUGCC, for which the self-cleavage was 0.

As for GGCAGAGCUCACCACAGCGUGGCAAAGUGUCUGUGGUUAAACUGCC, the self-cleavage amounted to 0.02. As for GGCAGAGCUCAGCACAGCGUGGCAUAGUGUCUCUGGCUAGACUGCC, the self-cleavage came out at 0.

On to GGCAGAGCUCACCAGAGCGUGGCAAAGUGGCUGUGGCUAGUAUGCC, for which the self-cleavage worked out at 0.

With GGCAGAGCUCACCACAGCAUGGCAAUGUGGCUGUGGCUAGACUGCC, the self-cleavage was determined as 0.02.

Regarding GGCAGAGCUCACCACACCGUGGCAAAGUGACUGUGGCUAGCCUGCC, the self-cleavage came to 0.01. Consider GGCAGAGCUCACCACAGCAUGGCAAAGCGGCUGUGGCUUGAGUGCC, for which the self-cleavage is 0.01.

As to GGCAGAGCUCAGGACAGCGUGGCAAAGUGGCUCUGGCUAGACUGCC, the self-cleavage turned out to be 0.

GGCAGAGCUCACCACAGCGUGGCAAAGUGGCUGUGGCUAAACUGUC: the self-cleavage was 0.03. Turning to GGCAGAGCUCACCACAGCGUGGCAAAUGGGCUGUGGCUAGACUGCA, the self-cleavage stood at 0.01. With GGCAGAGCUCACCACAUCGUGGCAACUUGGCUGUGGCUAGACUGCC, the self-cleavage is 0.01.

With GGCAGAGCUCACCACAGCGUGUCAAAGUGGCUGUGGCUGGACUGCC, the self-cleavage came to 0. Regarding GGCAGAGCUCACCACAGAGUGCCAAAGUGGCUGUGGCUAGACUGCC, the self-cleavage turned out to be 0.01. The figure for GGCAGAGCUCAGCAAAGCGUGGCAAAGUGGCUGUGGCUAGCCUGCC is 0.02; for GGCAGAGCUCACAACAGCGUGGCAAAGUGGCUGGGCCUAGACUGCC it is 0.03. The value for GGCAGAGCUCACCACAGCGUAGCAAAGUGGCUGUGGAUAGACUCAC was 0.01.
